# Experimental data: the supplement of paper PMC3334620
# Over roughly 33,000 sequences, “E-score (-0.5 to 0.5)” has its median near -0.017; the highest 2% begin near 0.3. Some of the results follow.
# Biological target: T1, Sut1 (UniProt P53032)
# T1 sequence: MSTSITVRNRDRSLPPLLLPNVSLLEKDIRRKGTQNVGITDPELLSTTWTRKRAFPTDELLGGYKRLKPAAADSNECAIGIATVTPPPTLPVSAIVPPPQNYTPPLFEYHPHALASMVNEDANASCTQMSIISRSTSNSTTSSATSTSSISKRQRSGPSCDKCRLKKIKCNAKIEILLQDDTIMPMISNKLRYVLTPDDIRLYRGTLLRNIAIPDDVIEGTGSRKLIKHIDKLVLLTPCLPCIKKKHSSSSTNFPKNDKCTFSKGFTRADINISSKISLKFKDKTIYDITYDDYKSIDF
# Assay: PBM E-score (8-mer binding enrichment) (E-score (-0.5 to 0.5)); higher = stronger / more preferred TF binding; most listed sequences are background and not binding sites
# Conditions: protein concentration: 200 nM; construct: GST-full length
# In short: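 Full-length yeast transcription factors or their DNA-binding domains, GST-tagged and expressed with PURExpress, were applied at about 100-200 nM to universal all-10-mer Agilent arrays. These arrays had been made double-stranded by primer extension on fresh or once-stripped slides. Detection used fluorescent anti-GST, normalisation used masliner, and E-scores for ungapped eight-base words pooled with reverse complements came from the Universal PBM Analysis Suite.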
row,Sequence,PBM E-score
1,CATCATGG,-0.172
2,AATAATCA,0.164
3,CTCTTCAC,-0.076
4,CCATCGGC,-0.0803
5,CATTTTAA,0.188
6,CCGCGATA,0.0966
7,AGCTCCAG,-0.251
8,GCCGGTTA,-0.261
9,GCACGAGA,-0.0526
10,AATCGCTC,-0.0871
11,CCGGTAGA,0.226
12,AGAGCACA,-0.0607
13,TACGACCA,-0.0801
14,ACCTATAT,0.228
15,ACGTGAGT,-0.212
16,GAAGTATC,0.0554
17,ACTGGGAA,0.0129
18,AAGTTATG,0.243
19,ATCTACGA,-0.0493
20,CAACCAGG,-0.232
21,GGTAAATA,0.175
22,CTTAAGTA,0.14
23,CCAATTCA,0.0222
24,CATGTGCA,-0.127
25,AGCATGGC,-0.271

row,Sequence,PBM E-score
1,AGTTACCA,0.00205
2,CCTGTACA,-0.0612
3,ACGGAGGG,-0.142
4,AGGAGACG,-0.293
5,GCGGGATA,-0.0993
6,CGCAAGAC,-0.0949
7,ATACATAA,0.274
8,GCCATATA,-0.00751
9,CCACACAG,-0.178
10,CAGGCATG,-0.04
11,AACGATGT,0.0478
12,AGCTCCCT,-0.18
13,GCTCTGGA,-0.0394
14,AGCGATCC,-0.0455
15,CAGCGACG,-0.119
16,GCTAGACC,-0.129
17,ATGCAGGA,-0.197
18,CATAGAAA,0.214
19,GTTACGTA,-0.225
20,ATAACCAG,0.173
21,ATCGCCAG,-0.0985
22,AATGAGAT,0.239
23,AAGCGTAG,0.0949
24,CCAAAGAC,0.0523
25,TAAGTCCA,0.0529

row,Sequence,PBM E-score
1,ACACAAGT,0.0119
2,GACGCCCC,-0.207
3,CCAGATGC,-0.302
4,ATTCTCTA,0.105
5,GTAGATAA,0.23
6,ATATCAGA,0.112
7,TCCTCCGA,0.0213
8,TCGCCGAA,-0.0725
9,CGTGTTTC,0.0675
10,ACAAATTA,0.186
11,ATGGGTCA,-0.11
12,AGTGCATA,-0.149
13,ATCTCCCC,-0.285
14,GGTTCGAC,-0.164
15,CAACCATC,0.00256
16,AACGGGCC,-0.172
17,CAGAGAGC,-0.19
18,ACTACGCA,-0.00835
19,CCATCCCA,-0.0246
20,AATGTGTC,0.116
21,TGACACAA,-0.0202
22,CCCTTAGA,-0.208
23,CGTTCTCA,-0.184
24,AGAATTAC,0.153
25,CCAGACCA,-0.139

row,Sequence,PBM E-score
1,GAATGTCA,-0.145
2,CTCACACA,-0.215
3,GCTAGAAA,0.0408
4,TAGCCATA,-0.198
5,ATGGGAGC,-0.0291
6,ACGCTAGC,-0.209
7,CTATGCAC,-0.28
8,TGAGCCAA,-0.0194
9,GACACACC,-0.0839
10,AAGAATTG,0.136
11,GATGCGCC,-0.186
12,CAACTGGA,-0.209
13,ACCCAGTA,-0.284
14,AACCGTGG,-0.178
15,CCGCGCGC,-0.125
16,ACGAACGG,0.0845
17,CAAGCGAG,-0.0477
18,CATCCCCA,-0.28
19,GCATAGAA,-0.0187
20,AATAGAGA,0.0122
21,CATTAATA,0.151
22,ACGTCTCG,-0.101
23,GTGGAGTA,-0.101
24,ATGTGCAC,-0.0356
25,AGAGTCCC,-0.0834

row,Sequence,PBM E-score
1,AAGCAGCT,0.0273
2,CTGCTGCC,-0.319
3,ATCTCTTA,0.134
4,GGTAGACA,0.0393
5,GTACATAA,0.137
6,AGGTGAAG,0.00569
7,TGTCGACA,-0.241
8,AAGGAATT,0.0671
9,ACTGCAGC,-0.143
10,ATCGGCAA,0.104
11,ACCGCCAC,-0.0951
12,GCCGCCCC,-0.156
13,ATTTACAG,0.0668
14,AAGTGTCT,0.0288
15,AAAGAGTC,-0.0103
16,GCACCGCA,-0.314
17,ACAGATTC,0.162
18,CCAGCCAG,-0.268
19,AGATATTA,0.211
20,TACCTTCA,0.0289
21,GCGATCCA,-0.121
22,AGACGCCA,-0.152
23,CGACGCCC,-0.103
24,CCGCTTAA,-0.0717
25,ACCTGGGG,-0.379

row,Sequence,PBM E-score
1,AGGCTATA,-0.185
2,GGACTGGA,-0.0583
3,TAAGAGTA,0.226
4,CTGCATTA,-0.182
5,CCAGAGGC,-0.23
6,CATGATCA,0.139
7,AACGCGGG,-0.0199
8,AATGAAAC,0.175
9,CACCGAGG,0.0171
10,GATCAAGA,0.153
11,CATCAGCC,-0.133
12,ACCCTGGG,-0.279
13,ACCTCCTG,-0.151
14,AAACTCGG,0.28
15,CAGGTACC,-0.265
16,CCTCCTCG,-0.232
17,GAACGGGC,-0.129
18,GAAGCGTC,-0.102
19,AGTCTGCG,-0.324
20,ACTACAAC,0.266
21,TATGGGAA,-0.0335
22,AAAAACGA,0.195
23,CACGCAGA,0.0407
24,TCTCCGCA,0.225
25,GTTGGGGA,-0.0953

row,Sequence,PBM E-score
1,AGTGGGTA,-0.0318
2,AGACCGAT,0.0576
3,AGCATCCC,-0.2
4,CACATGGG,-0.262
5,CCTCCCGC,-0.19
6,ACAGGACC,-0.108
7,GCTGACCA,-0.0367
8,ACTTGTTC,-0.0307
9,GCGAGACC,-0.139
10,AATGAATT,0.23
11,GAAGAACC,-0.0162
12,AGCACGAG,-0.0744
13,GGTATCAA,0.0679
14,ATGTCGCG,-0.0218
15,AGGGATCC,-0.224
16,CGAGAACG,0.0969
17,CGGAAAAG,0.245
18,AAGAGAGT,0.102
19,CCACAACC,0.0413
20,CTAGAGCC,-0.0856
21,AACCAGCA,-0.0548
22,ATTTTTGC,0.287
23,GCGTGAGA,-0.0629
24,ATTGTCGG,0.115
25,AACCTTTC,-0.0172

row,Sequence,PBM E-score
1,GCGATTAC,-0.0788
2,CATCCTGC,-0.211
3,CCACTCAC,-0.145
4,GACCGCGA,-0.169
5,CACTCTCC,0.0307
6,ACTGGTGA,-0.123
7,CCCCCCCA,-0.426
8,GATGCATA,0.00998
9,CCTTAATA,0.0272
10,GGTACAGA,-0.0604
11,CAAGATAG,-0.0215
12,ATGAGGAA,0.0562
13,AAGCGCGG,-0.0496
14,CCAAGCGA,-0.176
15,GCAAGCCC,-0.036
16,GTATGAGA,0.101
17,ATAGCAAA,0.12
18,CATGCGGC,-0.216
19,CATGGTCC,-0.193
20,ATACTGCG,-0.0624
21,AGTCACAA,-0.0527
22,CCCGACAC,-0.193
23,ATCCCATA,-0.00572
24,CAAGTTGG,0.0113
25,AGGGGTAC,-0.279

row,Sequence,PBM E-score
1,CTATTCAA,0.125
2,GTGACACA,0.0294
3,GGGAGTAA,0.0687
4,ACCGGGAA,0.145
5,AGCACGCG,0.0217
6,ACTCATTG,-0.148
7,AGCTTGGC,-0.0583
8,CCGCTAAG,-0.0197
9,CGGGCCCG,0.316
10,AGCTCCGA,0.464
11,CAGGCCAC,-0.206
12,AGTAGATG,0.129
13,CAGACGCG,-0.184
14,GCCTTTGA,-0.163
15,ACTTAGGA,-0.17
16,GTAGTTAA,0.17
17,GGGGCCAA,-0.233
18,AGAGCTGG,-0.0414
19,GGAGCCCA,-0.168
